Measured values as given in the supplement of paper PMC10441789.
Some of the results follow. Antibody binding of pooled human sera (four to six donors per pool; dilution not stated) to peptides of the Trypanosoma cruzi antigen TSSA on microarrays. Quantile-normalised fluorescence in arbitrary units, mean of duplicate arrays; higher = more binding. No active / inactive call. The uninfected pools are read here as the healthy donors of the same country. The strongest signals lie near the top of the scale (about 60,000).

How the values were obtained:
Test in all cases: antibody binding signal (normalised fluorescence) (arbitrary fluorescence units); higher = stronger serum antibody binding to peptide
[1] = system: pooled sera of chronic Chagas disease patients, Argentina
Experimental: (§1)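 Microarray of 15-residue peptides over residues 30-55 of Trypanosoma cruzi TSSAII, each with 1 to 10 substitutions at naturally variable positions, probed with one serum pool per country.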

[2] = system: pooled sera of chronic Chagas disease patients, Bolivia
Experimental: as §1

[3] = system: pooled sera of chronic Chagas disease patients, Brazil
Experimental: as §1

[4] = system: pooled sera of chronic Chagas disease patients, Colombia
Experimental: as §1

[5] = system: pooled sera of chronic Chagas disease patients, Mexico
Experimental: as §1

[6] = system: pooled sera of chronic Chagas disease patients, USA
Experimental: as §1

[7] = system: pooled sera of uninfected people, Argentina
Experimental: as §1

[8] = system: pooled sera of uninfected people, Bolivia
Experimental: as §1

[9] = system: pooled sera of uninfected people, Brazil
Experimental: as §1

[10] = system: pooled sera of uninfected people, Colombia
Experimental: as §1

[11] = system: pooled sera of uninfected people, Mexico
Experimental: as §1

[12] = system: pooled sera of uninfected people, USA
Experimental: as §1

Row | Sequence | antibody binding signal [1] | antibody binding signal [2] | antibody binding signal [3] | antibody binding signal [4] | antibody binding signal [5] | antibody binding signal [6] | antibody binding signal [7] | antibody binding signal [8] | antibody binding signal [9] | antibody binding signal [10] | antibody binding signal [11] | antibody binding signal [12]
1 | KTATGGTPSPPGASS | 478 | 286 | 524 | 411 | 436 | 566 | 356 | 129 | 176 | 188 | 101 | 148
2 | TEKKAATGGAPSQPG | 2120 | 398 | 7570 | 1670 | 1710 | 2600 | 511 | 1210 | 170 | 1230 | 240 | 261
3 | KDKKTATGGTPSQPG | 318 | 256 | 222 | 1280 | 212 | 1050 | 359 | 72.8 | 129 | 107 | 397 | 70.5
4 | TPPSGTDKKAAAGET | 16800 | 14300 | 30400 | 3450 | 38600 | 2230 | 254 | 317 | 297 | 330 | 2490 | 143
5 | TEKKPATGGTPSQPG | 1860 | 632 | 2520 | 3380 | 821 | 1460 | 406 | 502 | 1060 | 303 | 635 | 848
6 | DKKTAAGGAPSPPGA | 373 | 1030 | 283 | 7060 | 882 | 928 | 252 | 121 | 132 | 266 | 370 | 151
7 | SGKEKKAAAGGTPSP | 2980 | 250 | 1710 | 4990 | 4890 | 5360 | 124 | 88.5 | 533 | 145 | 95.2 | 121
8 | DNKAATGEAPSQSGA | 26400 | 44800 | 38600 | 89.8 | 197 | 27500 | 234 | 133 | 158 | 151 | 98.3 | 164
9 | KKPAAGGTPSPPGAS | 181 | 218 | 215 | 1570 | 136 | 402 | 265 | 136 | 628 | 150 | 79.6 | 417
10 | STPPSGTEKKAAAGG | 42600 | 13500 | 33200 | 6320 | 32000 | 5800 | 1250 | 321 | 226 | 147 | 195 | 338
11 | TISTPPSGTDNKPAA | 46800 | 49600 | 54100 | 6090 | 13300 | 27000 | 4010 | 918 | 1080 | 525 | 962 | 1030
12 | SSTPPSGKDNKTATG | 9110 | 1880 | 5550 | 2220 | 19100 | 3150 | 402 | 321 | 166 | 226 | 130 | 377
13 | EKKPATGGTPSPPGA | 918 | 359 | 497 | 2460 | 717 | 447 | 292 | 887 | 969 | 285 | 155 | 778
14 | STPPSGKEKKPAAGG | 21500 | 1090 | 3170 | 498 | 41200 | 641 | 485 | 450 | 151 | 319 | 112 | 420
15 | GKENKPAAGGTPSQP | 2680 | 624 | 9810 | 5290 | 6650 | 10100 | 691 | 229 | 358 | 195 | 245 | 104
16 | STPPSGTDNKAAAGG | 36000 | 48900 | 51100 | 1530 | 13600 | 33700 | 1220 | 706 | 1880 | 175 | 453 | 473
17 | GKEKKPAAGGAPSPP | 1620 | 312 | 236 | 2190 | 763 | 1100 | 124 | 103 | 154 | 104 | 98.9 | 267
18 | GTDKKTATGGAPSQP | 1220 | 317 | 2300 | 2950 | 1340 | 1050 | 340 | 449 | 122 | 103 | 231 | 155
19 | KDNKAAAGGTPSQPG | 212 | 179 | 312 | 1280 | 171 | 913 | 308 | 1700 | 501 | 227 | 183 | 98.9
20 | PPSGTEKKPATGETP | 43700 | 28400 | 34100 | 914 | 6950 | 21600 | 1070 | 674 | 1150 | 435 | 1920 | 365
21 | NKPATGGTPSPPGAS | 444 | 952 | 2870 | 271 | 400 | 278 | 799 | 1670 | 874 | 1260 | 232 | 1740
22 | TSSTPPSGTEKKPAT | 44700 | 7870 | 43300 | 780 | 38500 | 11800 | 1330 | 807 | 293 | 184 | 200 | 915
23 | SSTPPSGTDNKTAAG | 47700 | 44700 | 50000 | 1960 | 28900 | 22800 | 1250 | 730 | 1660 | 187 | 293 | 265
24 | STPPSGTDKKPAAGE | 39600 | 41500 | 45400 | 8240 | 33800 | 14600 | 1080 | 256 | 465 | 304 | 3920 | 275
25 | GTDKKTATGETPSPS | 352 | 427 | 872 | 1260 | 387 | 7570 | 220 | 335 | 141 | 135 | 437 | 2000

Row | Sequence | antibody binding signal [1] | antibody binding signal [2] | antibody binding signal [3] | antibody binding signal [4] | antibody binding signal [5] | antibody binding signal [6] | antibody binding signal [7] | antibody binding signal [8] | antibody binding signal [9] | antibody binding signal [10] | antibody binding signal [11] | antibody binding signal [12]
26 | GKEKKPATGGTPSPS | 2400 | 485 | 541 | 1920 | 2660 | 3070 | 163 | 116 | 309 | 119 | 91.1 | 258
27 | PSGKDNKPATGETPS | 38000 | 28400 | 34200 | 1820 | 2170 | 26300 | 549 | 1170 | 462 | 229 | 1760 | 181
28 | KDNKPAAGEAPSQSG | 623 | 16700 | 27600 | 348 | 190 | 14800 | 191 | 559 | 228 | 247 | 368 | 120
29 | KKPAAGEAPSQPGAS | 1950 | 6970 | 35700 | 268 | 272 | 8280 | 329 | 203 | 93.2 | 106 | 71.9 | 318
30 | PSGKDKKPATGETPS | 27100 | 9120 | 18200 | 3020 | 4660 | 18900 | 183 | 477 | 131 | 130 | 1100 | 131
31 | GKDKKPATGGTPSPS | 486 | 266 | 192 | 948 | 681 | 742 | 148 | 105 | 221 | 185 | 81.7 | 88.9
32 | KEKKPATGETPSPPG | 23700 | 4850 | 21600 | 167 | 149 | 16100 | 130 | 177 | 135 | 130 | 740 | 812
33 | TPPSGKEKKTATGET | 7440 | 363 | 1570 | 1580 | 6940 | 1250 | 356 | 691 | 119 | 384 | 198 | 146
34 | TENKTAAGGTPSPPG | 29300 | 361 | 199 | 4510 | 350 | 1470 | 263 | 159 | 1050 | 305 | 1710 | 165
35 | KAATGGAPSQPGASS | 698 | 309 | 7160 | 247 | 384 | 263 | 348 | 102 | 109 | 103 | 99.7 | 113
36 | GKDNKPAAGEAPSQS | 1920 | 9300 | 29000 | 1590 | 1790 | 17200 | 228 | 1070 | 128 | 187 | 268 | 95.2
37 | ISTPPSGKENKPATG | 19800 | 5330 | 23300 | 588 | 8300 | 13700 | 4380 | 2720 | 189 | 577 | 276 | 684
38 | KDNKPAAGGTPSPSG | 212 | 229 | 168 | 851 | 200 | 201 | 243 | 217 | 340 | 256 | 136 | 123
39 | KKAAAGEAPSQSGAS | 264 | 9810 | 8000 | 255 | 157 | 7090 | 221 | 162 | 108 | 76.7 | 112 | 227
40 | STPPSGKDKKPATGE | 36800 | 4670 | 19600 | 261 | 51900 | 12400 | 897 | 736 | 134 | 339 | 147 | 129
41 | EKKPATGETPSQPGA | 33900 | 18400 | 38400 | 340 | 278 | 24800 | 296 | 1090 | 481 | 309 | 2060 | 517
42 | KENKPATGEAPSQPG | 49700 | 44800 | 53000 | 400 | 847 | 45800 | 1060 | 899 | 305 | 219 | 246 | 178
43 | PSGKENKPATGGAPS | 8590 | 4820 | 11000 | 9210 | 9350 | 9440 | 7440 | 4180 | 168 | 319 | 565 | 293
44 | PSGTENKPATGGTPS | 48800 | 34600 | 46900 | 1920 | 4410 | 12900 | 1800 | 2520 | 946 | 513 | 593 | 609
45 | GKDNKPATGGAPSPP | 1060 | 2120 | 2450 | 1130 | 1760 | 3040 | 339 | 1130 | 133 | 146 | 178 | 134
46 | PPSGKENKPATGEAP | 45700 | 44800 | 50500 | 765 | 1970 | 43100 | 2960 | 2750 | 455 | 854 | 379 | 636
47 | TPPSGKDKKTAAGGA | 6370 | 1860 | 648 | 2200 | 37000 | 837 | 379 | 376 | 188 | 220 | 105 | 180
48 | KEKKTATGGTPSPPG | 322 | 267 | 196 | 948 | 226 | 1260 | 169 | 74.9 | 108 | 114 | 87.7 | 91.4
49 | TEKKPATGGTPSPSG | 1690 | 627 | 680 | 3260 | 1200 | 1630 | 229 | 496 | 1280 | 307 | 199 | 917
50 | GTENKAAAGEAPSPS | 34900 | 2140 | 14600 | 466 | 724 | 12200 | 125 | 225 | 157 | 120 | 95.4 | 116
